B1: myc-tagged pendrin (pCMV-Myc-pendrin) [not stated] / V5-EphA2 (pcDNA3.2-V5-EphA2) [not stated] (parent complex)
chain 1: MAAPGGRSEPPQLPEYSCSYMVSRPVYSELAFQQQHERRLQERKTLRESLAKCCSCSRKRAFGVLKTLVPILEWLPKYRVKEWLLSDVISGVSTGLVATLQGMAYALLAAVPVGYGLYSAFFPILTYFIFGTSRHISVGPFPVVSLMVGSVVLSMAPDEHFLVSSSNGTVLNTTMIDTAARDTARVLIASALTLLVGIIQLIFGGLQIGFIVRYLADPLVGGFTTAAAFQVLVSQLKIVLNVSTKNYNGVLSIIYTLVEIFQNIGDTNLADFTAGLLTIVVCMAVKELNDRFRHKIPVPIPIEVIVTIIATAISYGANLEKNYNAGIVKSIPRGFLPPELPPVSLFSEMLAASFSIAVVAYAIAVSVGKVYATKYDYTIDGNQEFIAFGISNIFSGFFSCFVATTALSRTAVQESTGGKTQVAGIISAAIVMIAILALGKLLEPLQKSVLAAVVIANLKGMFMQLCDIPRLWRQNKIDAVIWVFTCIVSIILGLDLGLLAGLIFGLLTVVLRVQFPSWNGLGSIPSTDIYKSTKNYKNIEEPQGVKILRFSSPIFYGNVDGFKKCIKSTVGFDAIRVYNKRLKALRKIQKLIKSGQLRATKNGIISDAVSTNNAFEPDEDIEDLEELDIPTKEIEIQVDWNSELPVKVNVPKVPIHSLVLDCGAISFLDVVGVRSLRVIVKEFQRIDVNVYFASLQDYVIEKLEQCGFFDDNIRKDTFFLTVHDAILYLQNQVKSQEGQGSILETITLIQDCKDTLELIETELTEEELDVQDEAMRTLAS
chain 2: not shown

Variants of: B1
Experiment: co-immunoprecipitation with densitometric quantification; n = 3; parent: 1; read off a plot

Point of comparison: chain 1 V138F, ratio to parent ~1.2. Against it:
- chain 1 H723R — lower, ~0.77
- chain 1 P123S — the same, ~1.2
- chain 1 T416P — lower, ~1.1
- chain 1 V653A — lower, ~0.88
- chain 1 N392Y — lower, ~0.85
- chain 1 G497S — lower, ~0.87
- chain 1 Q446R — lower, ~0.03
- chain 1 T721M — lower, ~0.85
- chain 1 L445W — lower, ~0.12
- chain 1 A372V — lower, ~0.03
- chain 1 S666F — the same, ~1.2
- chain 1 G672E — lower, ~0.13
- chain 1 L236P — higher, ~1.3

Variants of: B1
Experiment: as above
Remark: another data set of the same source

Point of comparison: chain 1 S166N, ratio to parent ~1. Against it:
- chain 1 L117F — lower, ~0.9

Reference: article PMC7067772 (2020)
